This is one part of the list.
Legend:
Assay in all cases: glycan array binding signal (z-score within array); higher = stronger binding
Conditions in all cases: glycan notation: IUPAC condensed, linker removed; mutation: R74S
[1] = target: Gal(a1-3)Gal(b1-4)GlcNAc
Outline: (§1)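 Columns mapping to the same glycan were averaged after glycan names were converted to IUPAC-condensed notation. The data come from 3228 arrays in the Consortium for Functional Glycomics database, limited to those with an available protein sequence. Binding is reported as a within-array Z-score averaged across arrays of one protein sequence and across linkers.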

[2] = target: Gal(a1-3)Gal(b1-4)GlcNAc(b1-2)Man
Outline: as §1

[3] = target: Gal(a1-3)Gal(b1-4)GlcNAc(b1-2)Man(a1-3)[Gal(a1-3)Gal(b1-4)GlcNAc(b1-2)Man(a1-6)]Man(b1-4)GlcNAc(b1-4)GlcNAc
Outline: as §1

[4] = target: Gal(a1-3)Gal(b1-4)GlcNAc(b1-3)GalNAc
Outline: as §1

[5] = target: Gal(a1-3)Gal(b1-4)GlcNAc(b1-6)GalNAc
Outline: as §1

[6] = target: Gal(a1-3)Gal(b1-4)[Fuc(a1-3)]GlcNAc
Outline: as §1

[7] = target: Gal(a1-3)Gal(b1-4)[Fuc(a1-3)]GlcNAc(b1-2)Man(a1-3)[Gal(a1-3)Gal(b1-4)[Fuc(a1-3)]GlcNAc(b1-2)Man(a1-6)]Man(b1-4)GlcNAc(b1-4)GlcNAc
Outline: as §1

[8] = target: Gal(a1-3)GalNAc
Outline: as §1

[9] = target: Gal(a1-3)[Gal(a1-4)]Gal(b1-4)GlcNAc
Outline: as §1

[10] = target: Gal(a1-4)Gal(b1-3)GlcNAc(b1-2)Man(a1-3)[Gal(a1-4)Gal(b1-3)GlcNAc(b1-2)Man(a1-6)]Man(b1-4)GlcNAc(b1-4)GlcNAc
Outline: as §1

[11] = target: Gal(a1-4)Gal(b1-4)Glc
Outline: as §1

[12] = target: Gal(a1-4)Gal(b1-4)GlcNAc
Outline: as §1

[13] = target: Gal(a1-4)Gal(b1-4)GlcNAc(b1-2)Man(a1-3)[Gal(a1-4)Gal(b1-4)GlcNAc(b1-2)Man(a1-6)]Man(b1-4)GlcNAc(b1-4)GlcNAc
Outline: as §1

[14] = target: Gal(a1-4)Gal(b1-4)GlcNAc(b1-3)Gal(b1-4)Glc
Outline: as §1

[15] = target: Gal(a1-4)GlcNAc
Outline: as §1

[16] = target: Gal(a1-6)Glc
Outline: as §1

[17] = target: Gal(b1-2)Gal
Outline: as §1

[18] = target: Gal(b1-3)Gal
Outline: as §1

[19] = target: Gal(b1-3)Gal(b1-4)GlcNAc
Outline: as §1

[20] = target: Gal(b1-3)GalNAc
Outline: as §1

[21] = target: Gal(b1-3)GalNAc(a1-3)[Fuc(a1-2)]Gal(b1-4)Glc
Outline: as §1

[22] = target: Gal(b1-3)GalNAc(a1-3)[Fuc(a1-2)]Gal(b1-4)GlcNAc
Outline: as §1

[23] = target: Gal(b1-3)GalNAc(b1-3)Gal
Outline: as §1

[24] = target: Gal(b1-3)GalNAc(b1-3)Gal(a1-4)Gal(b1-4)Glc
Outline: as §1

[25] = target: Gal(b1-3)GalNAc(b1-4)Gal(b1-4)Glc
Outline: as §1

[26] = target: Gal(b1-3)GalNAc(b1-4)[Neu5Ac(a2-3)]Gal(b1-4)Glc
Outline: as §1

[27] = target: Gal(b1-3)GlcNAc
Outline: as §1

[28] = target: Gal(b1-3)GlcNAc(a1-3)Gal(b1-4)GlcNAc
Outline: as §1

[29] = target: Gal(b1-3)GlcNAc(a1-6)Gal(b1-4)GlcNAc
Outline: as §1

[30] = target: Gal(b1-3)GlcNAc(b1-2)Man
Outline: as §1

[31] = target: Gal(b1-3)GlcNAc(b1-2)Man(a1-3)[Gal(b1-3)GlcNAc(b1-2)Man(a1-6)]Man(b1-4)GlcNAc(b1-4)GlcNAc
Outline: as §1

[32] = target: Gal(b1-3)GlcNAc(b1-2)Man(a1-3)[Gal(b1-3)GlcNAc(b1-2)Man(a1-6)]Man(b1-4)GlcNAc(b1-4)[Fuc(a1-6)]GlcNAc
Outline: as §1

[33] = target: Gal(b1-3)GlcNAc(b1-2)Man(a1-3)[GlcNAc(b1-4)][Gal(b1-3)GlcNAc(b1-2)Man(a1-6)]Man(b1-4)GlcNAc(b1-4)GlcNAc
Outline: as §1

[34] = target: Gal(b1-3)GlcNAc(b1-2)[Gal(b1-3)GlcNAc(b1-6)]Man(a1-6)[Gal(b1-3)GlcNAc(b1-2)Man(a1-3)]Man(b1-4)GlcNAc(b1-4)GlcNAc
Outline: as §1

[35] = target: Gal(b1-3)GlcNAc(b1-3)Gal(b1-3)GlcNAc
Outline: as §1

[36] = target: Gal(b1-3)GlcNAc(b1-3)Gal(b1-4)Glc
Outline: as §1

[37] = target: Gal(b1-3)GlcNAc(b1-3)Gal(b1-4)GlcNAc
Outline: as §1

[38] = target: Gal(b1-3)GlcNAc(b1-3)Gal(b1-4)GlcNAc(b1-2)Man(a1-3)[Gal(b1-3)GlcNAc(b1-3)Gal(b1-4)GlcNAc(b1-2)Man(a1-6)]Man(b1-4)GlcNAc(b1-4)GlcNAc
Outline: as §1

[39] = target: Gal(b1-3)GlcNAc(b1-3)Gal(b1-4)GlcNAc(b1-2)[Gal(b1-3)GlcNAc(b1-3)Gal(b1-4)GlcNAc(b1-6)]Man(a1-6)[Gal(b1-3)GlcNAc(b1-3)Gal(b1-4)GlcNAc(b1-2)Man(a1-3)]Man(b1-4)GlcNAc(b1-4)[Fuc(a1-6)]GlcNAc
Outline: as §1

[40] = target: Gal(b1-3)GlcNAc(b1-3)Gal(b1-4)GlcNAc(b1-3)Gal(b1-4)GlcNAc(b1-2)[Gal(b1-3)GlcNAc(b1-3)Gal(b1-4)GlcNAc(b1-3)Gal(b1-4)GlcNAc(b1-6)]Man(a1-6)[Gal(b1-3)GlcNAc(b1-3)Gal(b1-4)GlcNAc(b1-3)Gal(b1-4)GlcNAc(b1-2)Man(a1-3)]Man(b1-4)GlcNAc(b1-4)[Fuc(a1-6)]GlcNAc
Outline: as §1

[41] = target: Gal(b1-3)GlcNAc(b1-3)Gal(b1-4)GlcNAc(b1-6)[Gal(b1-3)GlcNAc(b1-3)]Gal(b1-4)Glc
Outline: as §1

[42] = target: Gal(b1-3)GlcNAc(b1-3)Gal(b1-4)[Fuc(a1-3)]GlcNAc
Outline: as §1

[43] = target: Gal(b1-3)GlcNAc(b1-3)Gal(b1-4)[Fuc(a1-3)]GlcNAc(b1-6)[Gal(b1-3)GlcNAc(b1-3)]Gal(b1-4)Glc
Outline: as §1

[44] = target: Gal(b1-3)GlcNAc(b1-3)GalNAc
Outline: as §1

[45] = target: Gal(b1-3)GlcNAc(b1-6)Gal(b1-4)GlcNAc
Outline: as §1

B1: Gal 7 (Homo sapiens) (protein)
chain: MSNVPHKSSLPEGIRPGTVLRIRGLVPPNASRFHVNLLCGEEGGSDAALHFNPRLDTSEVVFNSKEGGSWGREESGPGVPFGRGQPFEVLIIASDDGFKAVVGDAQYHHFRHRLPLARVRLVEVGGDVQLDSVRIF
[1]
  glycan array binding signal (z-score): -0.056
[2]
  glycan array binding signal (z-score): -0.425
[3]
  glycan array binding signal (z-score): 0.018
[4]
  glycan array binding signal (z-score): -0.416
[5]
  glycan array binding signal (z-score): -0.143
[6]
  glycan array binding signal (z-score): -0.359
[7]
  glycan array binding signal (z-score): 2.01
[8]
  glycan array binding signal (z-score): -0.024
[9]
  glycan array binding signal (z-score): -0.461
[10]
  glycan array binding signal (z-score): -0.347
[11]
  glycan array binding signal (z-score): -0.09
[12]
  glycan array binding signal (z-score): -0.365
[13]
  glycan array binding signal (z-score): -0.222
[14]
  glycan array binding signal (z-score): -0.663
[15]
  glycan array binding signal (z-score): -0.668
[16]
  glycan array binding signal (z-score): -0.367
[17]
  glycan array binding signal (z-score): -0.04
[18]
  glycan array binding signal (z-score): -0.443
[19]
  glycan array binding signal (z-score): -0.425
[20]
  glycan array binding signal (z-score): -0.37
[21]
  glycan array binding signal (z-score): -0.236
[22]
  glycan array binding signal (z-score): -0.419
[23]
  glycan array binding signal (z-score): 0.336
[24]
  glycan array binding signal (z-score): -0.561
[25]
  glycan array binding signal (z-score): -0.228
[26]
  glycan array binding signal (z-score): -0.556
[27]
  glycan array binding signal (z-score): -0.127
[28]
  glycan array binding signal (z-score): -0.366
[29]
  glycan array binding signal (z-score): -0.476
[30]
  glycan array binding signal (z-score): 0.331
[31]
  glycan array binding signal (z-score): -0.529
[32]
  glycan array binding signal (z-score): 0.404
[33]
  glycan array binding signal (z-score): 0.83
[34]
  glycan array binding signal (z-score): -0.103
[35]
  glycan array binding signal (z-score): -0.548
[36]
  glycan array binding signal (z-score): -0.342
[37]
  glycan array binding signal (z-score): -0.473
[38]
  glycan array binding signal (z-score): -0.146
[39]
  glycan array binding signal (z-score): 0.816
[40]
  glycan array binding signal (z-score): 0.86
[41]
  glycan array binding signal (z-score): -0.069
[42]
  glycan array binding signal (z-score): -0.234
[43]
  glycan array binding signal (z-score): -0.355
[44]
  glycan array binding signal (z-score): -0.532
[45]
  glycan array binding signal (z-score): -0.301
